# Laboratory results reported in PMC4336329 (PLoS ONE, 2015).
# Hit rate of the full screen: of about 310,000 compounds, about 2,200 (0.71%) showed an effect of 50% or more. The effect is printed as a negative number. The list shows a part of the results.
# Target: human ether-à-go-go-related gene (hERG) potassium channel (human, UniProt Q12809)
# Test: primary screen, population patch clamp on CHO cells stably expressing hERG
# human ether-à-go-go-related gene (hERG) potassium channel, sequence (Q12809 whole entry, looked up): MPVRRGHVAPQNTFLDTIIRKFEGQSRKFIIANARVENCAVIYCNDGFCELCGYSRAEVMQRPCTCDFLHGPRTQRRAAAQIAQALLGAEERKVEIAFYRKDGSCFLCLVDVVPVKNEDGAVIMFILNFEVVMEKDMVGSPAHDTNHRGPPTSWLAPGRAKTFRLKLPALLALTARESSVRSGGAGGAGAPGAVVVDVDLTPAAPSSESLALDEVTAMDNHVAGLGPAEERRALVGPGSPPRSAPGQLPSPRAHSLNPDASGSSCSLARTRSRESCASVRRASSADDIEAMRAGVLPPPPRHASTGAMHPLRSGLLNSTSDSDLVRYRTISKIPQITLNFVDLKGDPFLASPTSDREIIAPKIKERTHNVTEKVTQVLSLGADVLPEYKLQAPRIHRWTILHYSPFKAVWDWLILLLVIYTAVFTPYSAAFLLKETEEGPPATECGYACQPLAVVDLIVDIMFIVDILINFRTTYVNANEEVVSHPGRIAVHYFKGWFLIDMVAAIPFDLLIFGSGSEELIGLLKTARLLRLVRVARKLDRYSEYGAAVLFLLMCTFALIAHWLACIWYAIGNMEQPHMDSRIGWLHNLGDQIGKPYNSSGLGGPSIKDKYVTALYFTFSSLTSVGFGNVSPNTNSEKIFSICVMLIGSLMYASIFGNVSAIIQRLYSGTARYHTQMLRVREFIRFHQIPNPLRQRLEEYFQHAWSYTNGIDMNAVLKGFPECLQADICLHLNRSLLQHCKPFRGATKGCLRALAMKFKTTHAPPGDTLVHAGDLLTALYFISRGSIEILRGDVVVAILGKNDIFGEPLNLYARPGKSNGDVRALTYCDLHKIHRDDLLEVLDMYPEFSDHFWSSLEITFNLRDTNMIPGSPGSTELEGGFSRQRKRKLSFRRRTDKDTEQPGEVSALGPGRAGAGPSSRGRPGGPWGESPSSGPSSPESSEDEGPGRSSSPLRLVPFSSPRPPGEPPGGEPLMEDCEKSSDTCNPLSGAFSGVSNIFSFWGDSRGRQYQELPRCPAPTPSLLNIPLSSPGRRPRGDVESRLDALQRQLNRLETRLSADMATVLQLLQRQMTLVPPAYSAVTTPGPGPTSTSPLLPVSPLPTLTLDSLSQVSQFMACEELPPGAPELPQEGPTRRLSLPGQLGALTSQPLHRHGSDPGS
row,SMILES,"hERG current change (%, negative = inhibition) at 1uM [%]"
1,O=C(CCc1ccccc1)Nc1ccc(NC(=O)c2ccco2)nc1,13.1
2,Oc1ccc(Oc2ncc(Cl)cc2Cl)cc1,-9.7
3,N#CC1=C(N)N(c2ccccc2C#N)C2=C(C(=O)CCC2)C1c1ccsc1 (stereo not shown),-2.19
4,CC(=Nc1ccccc1)Nc1ccccc1,2.41
5,CCCC1=Nc2cc(C(=O)NCCCN3CCOCC3)ccc2Sc2ccccc21,13.7
6,CCOC(=O)c1c(C)[nH]c(C(=O)NNC(=O)c2ccc(C(C)(C)C)cc2)c1C,0.192
7,CCn1c(SCC(=O)Nc2ccc(OC)c(OC)c2)nnc1-c1cccs1,3.81
8,CCOC(=O)N1CCN(c2c(NCCc3ccc(OCC)c(OCC)c3)c(=O)c2=O)CC1,-1.38
9,C#CCOC(=O)c1csc2nnsc12,1.47
10,CCc1ccc(NC(=O)C(C)Sc2ccc(S(=O)(=O)N3CCN(C)CC3)cn2)cc1 (stereo not shown),-3.65
11,O=C(NNc1ccc(Cl)cc1)C1CCC1,12
12,NS(=O)(=O)c1ccc(NC(=O)CSc2ncn[nH]2)cc1,12.8
13,O=C(NCCCN1CCOCC1)c1cc2c(s1)CSC2,-3.25
14,COc1ccc(C(=O)N2CCOC2CNC(=O)C(=O)NCCc2ccc(OC)c(OC)c2)cc1 (stereo not shown),1.99
15,CCN(CC)CCNC(=O)NC1CCCCC1,12.1
16,COc1ccc2c(c1)SC1=NCCS(=O)(=O)N12,11.8
17,COc1cc(NC(=O)c2ccc(Cl)cc2Cl)ccc1-c1cc2ccccc2oc1=O,-9.18
18,Cc1ccc(NC(=O)C(C)Sc2nnc(C3CC3)n2C2CC2)cc1S(=O)(=O)N1CCOCC1 (stereo not shown),-1.92
19,CCOC(=O)c1ccc(N2C(=O)c3n[nH]c(C)c3C2c2ccccc2)cc1 (stereo not shown),5.24
20,CCN(c1ccccc1)S(=O)(=O)c1cccc(C(=O)OCc2nc3sc(C)c(C)c3c(=O)[nH]2)c1,-8.18

row,SMILES,"hERG current change (%, negative = inhibition) at 1uM [%]"
1,c1ccc(Nc2nn[nH]n2)cc1,10.1
2,COc1ncnc2c1oc1ccccc12,12.3
3,O=C(Nc1ccccc1C(=O)O)C1=NN=CC1,10.4
4,COc1ccc(N2CCN(C(=O)CCS(=O)(=O)c3ccc4c(c3)NC(=O)C(C)S4)CC2)cc1 (stereo not shown),12.8
5,Cc1cc(Cn2nc(C(=O)NCC3CC3)cc2-c2ccccc2)on1,-4.45
6,CCc1nnc(NC(=O)C2CCC(CNc3c(N4CCCCC4)c(=O)c3=O)CC2)s1 (stereo not shown),8.91
7,O=C(COc1ccc(Cl)cc1)NCc1nnc(SCC(=O)NCc2ccc3c(c2)OCO3)o1,4.88
8,Cc1ccc(C(=O)NCCc2c[nH]c3ccccc23)s1,6.36
9,CC(C)CN1C(=O)NC(NC(=O)c2ccco2)(C(F)(F)F)C1=O (stereo not shown),2.42
10,Cc1cc(C(=O)NP(=O)(N2CC(C)OC(C)C2)N2CC(C)OC(C)C2)c(C)n1C1CC1 (stereo not shown),7.75
11,CNC(=O)NC(=O)C(C)OC(=O)CCCSc1nc2ccccc2s1 (stereo not shown),12.8
12,Nc1c(C(=O)c2ccc(Cl)cc2)sc2nsc(SCCN3CCOCC3)c12,0.887
13,CCN1CCN(c2c(Cl)cccc2NC(=O)c2ccc([N+](=O)[O-])o2)CC1,-77
14,O=C1c2cnc3nc(SCc4ccccc4)nn3c2CC2c3ccccc3CCN12 (stereo not shown),-3.39
15,CCn1cc(Br)c(C(=O)Nc2ccccc2C(=O)OC)n1,20.9
16,COc1ccc2c(c1)OC13CCCCC1C2C(C(=O)c1ccccc1)C(=O)N3 (stereo not shown),5.49
17,O=C(c1ccc(N2CCCCCC2)c([N+](=O)[O-])c1)N1CCc2ccccc21,7.31
18,Cc1ccc(OCC(=O)Nc2ccc([N+](=O)[O-])cn2)cc1C,9.93
19,CCCCn1c(=O)nc2n(-c3ccccc3C)c3ccccc3cc-2c1=O,4.79
20,O=C(CCc1ccccc1)N1CCCC(Nc2ccc(F)cc2)C1 (stereo not shown),1.88

row,SMILES,"hERG current change (%, negative = inhibition) at 1uM [%]"
1,CCOCCCNC(=O)Cn1nc(-c2ccccc2)ccc1=O,6.81
2,O=C(CCc1nnc(CCCc2ccccc2)o1)NCCCC1CCCC1,6.26
3,CC(=O)c1cccc(S(=O)(=O)N2CCC(n3nnc4cc(F)ccc43)CC2)c1,-47.3
4,CC(C)CN(C(=O)CN1C(=O)NC(c2ccccc2)(c2ccccc2)C1=O)C1CCS(=O)(=O)C1 (stereo not shown),4.8
5,CN(CCc1ccccn1)C(=S)NC(=O)c1ccco1,15.5
6,CCc1nnc(NC(=O)CCC(=O)NC2CCCCCCC2)s1,17.4
7,O=C1c2ccccc2NC(c2ccc(-c3cccc(Cl)c3)o2)N1O (stereo not shown),-2.04
8,O=C(CN1CCCCCC1)NCCN1C(=O)S/C(=C\c2ccccc2Cl)C1=O,4.16
9,CC(C)N1CC(C(=O)Nc2ccc(F)c(Cl)c2)CC1=O (stereo not shown),15.3
10,CS(=O)(=O)c1ccc(NS(=O)(=O)c2ccc(Cl)c(C(=O)NCc3ccco3)c2)cc1,12.1
11,COc1ccccc1Nc1nc(N)nc(CSc2nccn2C)n1,8.83
12,COc1ccc(C(C(=O)Nc2ccc(C(C)C)cc2)N(Cc2ccco2)C(=O)CC2NC(=O)NC2=O)cc1 (stereo not shown),1.33
13,O=C(CSc1ccc(F)cc1)N1CCN(S(=O)(=O)c2ccccc2)CC1,6.07
14,Clc1cccc(CN2CCN(c3ncccn3)CC2)c1Cl,11.5
15,S=c1[nH]nc(-c2ccncc2)n1Cc1ccccc1,9.32
16,O=c1cccc2c1c1cc[nH]c3ccc(=O)n2c31,16.7
17,COc1cc(NC(=S)NCCN2CCOCC2)cc(OC)c1OC,14.7
18,CCOP(=O)(c1ccc(N(C)C)cc1)C(O)c1ccncc1 (stereo not shown),8.47
